Results: publication PMC6919601, “Identification of Plasmodium dipeptidyl aminopeptidase allosteric inhibitors by high throughput screening” (PLoS ONE, 2019)
The campaign covered roughly 110,000 compounds. About 230 (0.21%) showed an effect of 50% or more. The list shows a part of the results.

Target: DPAP1 (Plasmodium falciparum, UniProt Q8IIJ9)
Experiment: primary screen, percent inhibition; read by cleavage of a fluorogenic dipeptide substrate; higher = more effect of the substance
Parameters: species or system P. falciparum D10 trophozoite lysates; single well
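Further: 30 min substrate incubation versus DMSO and 10 µM JCP410 controls.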

DPAP1, sequence (Q8IIJ9 whole entry, looked up): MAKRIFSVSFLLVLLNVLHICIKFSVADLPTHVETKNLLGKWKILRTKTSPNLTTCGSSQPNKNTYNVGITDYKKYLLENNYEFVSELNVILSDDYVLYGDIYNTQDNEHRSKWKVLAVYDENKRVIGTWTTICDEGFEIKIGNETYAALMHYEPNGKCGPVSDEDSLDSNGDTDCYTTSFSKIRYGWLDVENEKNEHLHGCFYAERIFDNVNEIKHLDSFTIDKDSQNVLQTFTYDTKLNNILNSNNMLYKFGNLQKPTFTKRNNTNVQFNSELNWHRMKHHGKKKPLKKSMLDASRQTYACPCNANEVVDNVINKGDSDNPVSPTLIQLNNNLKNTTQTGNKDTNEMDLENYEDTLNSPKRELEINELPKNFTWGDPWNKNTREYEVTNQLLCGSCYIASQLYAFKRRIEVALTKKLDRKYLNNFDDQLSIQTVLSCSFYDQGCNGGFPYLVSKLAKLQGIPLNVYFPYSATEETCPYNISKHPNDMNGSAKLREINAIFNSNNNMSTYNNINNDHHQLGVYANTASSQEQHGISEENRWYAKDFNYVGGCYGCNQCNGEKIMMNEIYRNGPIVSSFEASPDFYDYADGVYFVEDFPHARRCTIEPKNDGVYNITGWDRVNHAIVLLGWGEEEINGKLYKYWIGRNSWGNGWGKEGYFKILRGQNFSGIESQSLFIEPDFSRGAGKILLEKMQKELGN

In order of falling “% Inhibition @ 10 uM” value:
1. COc1ccccc1CN1CCN(Cc2cccc(OC)c2OC)CC1  13.3%
2. CC1CC(C)CN(CCCNc2cnnc3c(Cl)cccc23)C1 (stereo not shown)  12%
3. Cn1ncc(C(=O)N2CCOCC2)c1C1CCN(C(=O)OC(C)(C)C)CC1  7.3%
4. COc1ccc(-n2nc3c(c2NC(=O)c2cc(OC)c(OC)c(OC)c2)CS(=O)(=O)C3)cc1  6.85%
5. O=C1OC(c2ccc(F)cc2)=C/C1=C/c1ccc(O)cc1  6.58%
6. Cc1cc(C)c2nc(N3CCC(C(=O)NCCCOC(C)C)CC3)sc2c1  6.46%
7. Cc1cc(C)nc(N2CC(=O)N(CCOc3ccc(Br)cc3)C2=O)n1  6.37%
8. COc1ccc(CCN2C(=O)c3oc4cc(C)cc(C)c4c(=O)c3C2c2cccc(O)c2)cc1OC (stereo not shown)  6.34%
9. CCN(CC)C(=O)CSc1nc2c(c(C(F)(F)F)c1C#N)CCC2  5.64%
10. Cn1ncc2c(N(CCO)Cc3ccccc3)ncnc21  5.38%
11. O=S(=O)(c1ccc(S(=O)(=O)N2CCN(c3ncccn3)CC2)cc1)N1CCCCCC1  5.35%
12. CCOc1ccccc1N1CCN(C(=O)c2cc(Cl)ccc2OC)CC1  5.26%
13. Cc1cc(C)c2c(C(C)(C)C)nn(-c3ccccc3)c2n1  4.94%
14. COc1cc(C2CC(=O)NC3=C2C(=O)CC(c2ccc(F)cc2)C3)c(OC)cc1Br (stereo not shown)  4.78%
15. CC(C)NC(=O)c1ccc(Cn2c(SCc3ccccc3F)nc3cccnc32)cc1  4.67%
16. N#CC1=C(N)Oc2c(c(O)nc3ccccc23)C1c1ccc(Br)cc1 (stereo not shown)  4.67%
17. Cc1ccc(N2C(=O)c3ccccc3C2=O)cc1C  4.58%
18. O=C1CCCC2=C1C(c1cccnc1)Nc1ccc3ccccc3c12 (stereo not shown)  4.12%
19. O=C(CSc1nnc2ccccn12)c1ccc(Cl)cc1  4.08%
20. CC(NC(=O)c1cccs1)c1ccc2c(c1)OCCCO2 (stereo not shown)  3.8%
21. O=C(CSc1cn(CC(=O)N2CCCC2)c2ccccc12)NCCc1ccccc1  3.77%
22. Cc1ccc(NC(=O)CN(c2ccccc2F)S(=O)(=O)c2ccccc2)c(C)c1  3.66%
23. CC(=O)N1c2ccccc2N=C2CC(C)(C)CC(O)=C2C1c1cccc(O)c1 (stereo not shown)  3.65%
24. CC(=O)c1cc2c(cc1NC(=O)c1ccccc1C)OCO2  3.49%
25. COc1ccc(CC(=O)Nc2sc3c(c2C#N)CC(C)(C)NC3(C)C)cc1  3.23%
26. CCOc1ccc(NC(=O)c2ccc(C)cc2)cc1  3%
27. O=C(NCc1ccccc1)c1c(NS(=O)(=O)c2ccccc2)sc2c1CCCC2  2.95%
28. O=C(O)C(O)(c1ccccc1)C1CCCCC1 (stereo not shown)  2.94%
29. Cc1ccc(CNC(=O)c2ccc(CNc3c(N4CCC(C)CC4)c(=O)c3=O)cc2)cc1  2.76%
30. O=C(CCn1c(=O)c2cccn2c2cccnc21)N1CCC(N2CCCCC2)CC1  2.6%
31. O=S(=O)(Cc1ccccc1)NCCc1ccncc1  2.57%
32. COc1ccc(S(=O)(=O)n2nc(C)c(Sc3ccccc3)c2C)cc1  2.43%
33. Cc1cc(C)c(S(=O)(=O)Nc2cccc(F)c2)c(C)c1  2.4%
34. CCOc1ccc(CNC(=O)C2=C(C)C(=O)OC23CCCCCC3)cc1  2.25%
35. O=C(CN(Cc1ccccc1)S(=O)(=O)c1ccc(Cl)cc1)NCc1ccco1  2.17%
36. CCOc1ccc(-c2csc(/C(C#N)=C/c3ccccc3OC)n2)cc1  2.13%
37. COc1cccc(C2C(C#N)=C(N)Oc3cc(C)n(CCN4CCOCC4)c(=O)c32)c1OC (stereo not shown)  2.1%
38. CCO/C(O)=C1\C(C)=NC2=C(C(=O)CC(c3ccccc3)C2)C1c1cccc(O)c1 (stereo not shown)  1.67%
39. NC(=O)c1ccc(NC(=O)CN(Cc2ccccc2)S(=O)(=O)c2ccccc2)cc1  1.64%
40. CCCOc1ccc(C(=O)C2=C(O)C(=O)N(Cc3cccnc3)C2c2ccccc2F)c(C)c1 (stereo not shown)  1.52%
41. COCCCNC(=O)C1c2ccccc2C(=O)N(CC(C)C)C1c1cccs1 (stereo not shown)  1.42%
42. Cn1cnc2c(=O)oc3ccc(S(=O)(=O)N4CCN(C(=O)c5ccco5)CC4)cc3c21  1.14%
43. Cc1[nH]c2ccccc2c1C(c1cccnc1)N1CCC(C)CC1 (stereo not shown)  1.05%
44. Cc1cccc(NS(=O)(=O)c2ccc3ccccc3c2)n1  1.04%
45. Cc1coc2c(C)c3oc(=O)c(CC(=O)NCCc4ccccc4)c(C)c3cc12  0.895%
46. O=C(NCCCN1CCCC1=O)c1cc2nc(-c3ccco3)cc(C(F)(F)Cl)n2n1  0.323%
47. CC(C)C[C@H](NC(=O)OCc1ccccc1)C(=O)NC1(C#N)CC[SH+](O)(O)CC1  0.173%
48. CCC[C@H](NC(=O)C1(NC(=O)c2ccncc2)CCCCC1)C(=O)c1nc2ccccc2o1  0.173%
49. CN1C(=O)/C(=C/c2cccc(Br)c2)S/C1=N/c1ccc(C(=O)O)cc1  0.0504%
50. COc1cccc(C2CC(C(F)(F)F)n3ncc(C(=O)N4CCCCC4C)c3N2)c1 (stereo not shown)  0.0289%
51. Cc1nnc2sc(-c3csc4c3CCCC4)nn12  -0.0735%
52. O=c1cccc2n1C[C@H]1C[C@@H]2CN(Cc2ccc(F)cc2)C1  -0.13%
53. CCOC(=O)N1CCC(NC(=O)c2cnn3c(C)c(Cc4cc(C)ccc4C)c(C)nc23)CC1  -0.406%
54. COc1cccc(C(=O)N2N=C3CCC(C)CC3C2(O)C(F)(F)F)c1 (stereo not shown)  -0.564%
55. NS(=O)(=O)c1ccc(CNC(=O)c2ccccc2F)cc1  -0.661%
56. Cc1ccc(C)c(F)c1F  -0.778%
57. Cc1ccc(NC(=O)c2ccc(C(C)(C)C)cc2)cc1O  -1.09%
58. COc1cc(C2C3=C(O)CC(C)(C)CC3=NC3=C2C(=O)CC(C)(C)C3)cc(Cl)c1O (stereo not shown)  -1.3%
59. CCC1CCc2c(nc3ccccc3c2O)O1 (stereo not shown)  -1.37%
60. CC(C)(C)C1CCc2c(sc(NC(=O)c3ccccc3F)c2C(=O)O)C1 (stereo not shown)  -1.4%
61. Fc1ccc(Cn2cccc2C2=NC(c3ccccc3)CO2)cc1 (stereo not shown)  -1.58%
62. O=C(Nc1ccccc1F)c1ccc(CNS(=O)(=O)c2cccc(Cl)c2)cc1  -1.61%
63. O=C(NC1CCCC1)c1ccccc1Cl  -1.62%
64. Oc1ccc(CN2CCC3(C=Cc4ccccc43)CC2)cc1  -1.64%
65. Cc1cccc(N(CC(=O)Nc2ccc3c(c2)OCO3)S(C)(=O)=O)c1C  -1.82%
66. CS(=O)(=O)c1ccc2ccc(S(C)(=O)=O)cc2c1  -1.91%
67. COc1ccc(NC(=O)c2cc(Cl)c(Cl)cc2C(=O)O)cc1  -1.95%
68. CNC(=O)Nc1ccc(C(=O)O)cc1  -1.97%
69. CC(=O)N/C(=C/c1ccccc1)C(=O)N1CCN(C(=O)/C(=C\c2ccccc2)NC(C)=O)CC1  -2.24%
70. CCN(CC)CCN(CC)Cc1ccc(Cl)cc1Cl  -2.34%
71. Cc1cc(Cl)ccc1-n1c(S)nnc1CN1CCN(C)CC1  -2.42%
72. CC1=NN(c2ccc(Br)cc2)C(=O)CC1  -2.51%
73. Cc1ccc(C2=NN(C(=O)CCCC(=O)O)C(c3ccc4c(c3)OCO4)C2)cc1 (stereo not shown)  -2.77%
74. O=C(Nc1nc[nH]n1)C(Sc1ccccc1)c1ccccc1 (stereo not shown)  -3.13%
75. Cc1ccc(Cl)cc1-n1ncc2c(N3CCN(CCO)CC3)ncnc21  -3.2%
76. CC1=CC2=NC(=O)/C(=C\c3ccc(OCc4ccccc4)c(Cl)c3)C(=N)N2O1  -3.23%
77. COc1cc2oc3ccccc3c2cc1N(CC(=O)N(C)C)S(=O)(=O)c1ccccc1  -3.34%
78. C=CCNC(=S)Nn1c(C)nnc1-n1nc(C)cc1C  -3.41%
79. OCC1CCN(Cc2ccccc2)CC1  -3.42%
80. Cc1cccc(NC(=O)c2nn(C)c3c2CSc2ccccc2-3)n1  -3.51%
81. Cc1cccc(C(=O)Nc2nnc(S(=O)(=O)N3CCCCCC3)s2)c1  -3.51%
82. COCCN1C(=O)c2ccc(C34CC5CC(CC(C5)C3)C4)cc2C1=O  -3.53%
83. CCN1CCN(C(=O)Nc2ccc(Cc3ccc(NC(=O)N4CCN(CC)CC4)cc3)cc2)CC1  -3.77%
84. Cc1cc(C)c2c(n1)SCC(=O)N2CC(=O)NCCC(C)C  -4.15%
85. CCCn1c2ccccc2c2cnn(CC(=O)NCC3CCN(Cc4cccc(C)c4)CC3)c(=O)c21  -4.25%
86. CSc1ccc(S(=O)(=O)N(CC(=O)NCc2ccccn2)c2ccc(C)cc2)cc1  -4.49%
87. COc1ccc(N(CC(=O)Nc2cccc(Br)c2)S(C)(=O)=O)cc1OC  -5.13%
88. N#CCNC(=O)[C@H](CC1CCCCC1)NC(=O)OCC1CCCCC1  -5.21%
89. Clc1ccc(-c2nnn(CN3CCCCC3)n2)cc1  -6.84%
90. CCOC(=O)C1=C(C)N=c2s/c(=C\c3ccc(N(CC)CC)cc3)c(=O)n2C1c1ccccc1Cl (stereo not shown)  -7.19%
91. CCC(C(=O)O)n1cnc2sc3c(c2c1=O)CCCC3 (stereo not shown)  -7.25%
92. O=C(/C=C/c1ccccc1)NCCn1ccc2ccccc21  -7.51%
93. COc1ccc(CN2CCN(C(=O)Cn3ncn4cccc4c3=O)CC2)c(OC)c1OC  -7.52%
94. CCC(=O)Nc1ccc(NC(=N)Nc2nc(C)cc(C)n2)cc1  -8.94%
95. COc1ccccc1/C=C/C=c1\sc2nc(=O)c(Cc3ccccc3)nn2c1=O  -9.16%
96. Cc1ccc(C(=O)Nc2ccc(NC(=O)c3cccs3)cc2)cc1  -9.4%
97. CC1=C(C(=O)Nc2ccc(C)cc2)C(c2c(Cl)cccc2Cl)NC(=O)N1 (stereo not shown)  -12%
